Experimental data reported in the supplement of paper PMC8728848.
Some of the results follow.

Tests used:
Experiment in all cases: glycan array binding signal (z-score within array); higher = stronger binding
Details in all cases: glycan notation: IUPAC condensed, linker removed; mutation: H84T
[1] = molecular target: Gal3S(b1-3)[Fuc(a1-4)]GlcNAc
Summary of the method: (§1)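 Columns mapping to the same glycan were averaged after glycan names were converted to IUPAC-condensed notation. The data come from 3228 arrays in the Consortium for Functional Glycomics database, limited to those with an available protein sequence. Binding is reported as a within-array Z-score averaged across arrays of one protein sequence and across linkers.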

Gal3S(b1-4)Glc = molecular target: Gal3S(b1-4)Glc
Summary of the method: as §1

Gal3S(b1-4)Glc6S = molecular target: Gal3S(b1-4)Glc6S
Summary of the method: as §1

Gal3S(b1-4)GlcNAc = molecular target: Gal3S(b1-4)GlcNAc
Summary of the method: as §1

[2] = molecular target: Gal3S(b1-4)[Fuc(a1-3)]Glc6S
Summary of the method: as §1

[3] = molecular target: Gal3S(b1-4)[Fuc(a1-3)]GlcNAc
Summary of the method: as §1

[4] = molecular target: Gal3S(b1-4)[Fuc(a1-3)]GlcNAc6S
Summary of the method: as §1

Gal3S4S(b1-4)GlcNAc = molecular target: Gal3S4S(b1-4)GlcNAc
Summary of the method: as §1

Gal3S6S(b1-4)GlcNAc = molecular target: Gal3S6S(b1-4)GlcNAc
Summary of the method: as §1

Gal3S6S(b1-4)GlcNAc6S = molecular target: Gal3S6S(b1-4)GlcNAc6S
Summary of the method: as §1

Gal4S(b1-4)GlcNAc = molecular target: Gal4S(b1-4)GlcNAc
Summary of the method: as §1

Gal4S6S(b1-4)GlcNAc = molecular target: Gal4S6S(b1-4)GlcNAc
Summary of the method: as §1

Gal6P(b1-4)GlcNAc = molecular target: Gal6P(b1-4)GlcNAc
Summary of the method: as §1

Gal6S(b1-3)GlcNAc = molecular target: Gal6S(b1-3)GlcNAc
Summary of the method: as §1

Gal6S(b1-3)GlcNAc6S = molecular target: Gal6S(b1-3)GlcNAc6S
Summary of the method: as §1

Gal6S(b1-4)Glc = molecular target: Gal6S(b1-4)Glc
Summary of the method: as §1

Gal6S(b1-4)Glc6S = molecular target: Gal6S(b1-4)Glc6S
Summary of the method: as §1

Gal6S(b1-4)GlcNAc = molecular target: Gal6S(b1-4)GlcNAc
Summary of the method: as §1

Gal6S(b1-4)GlcNAc6S = molecular target: Gal6S(b1-4)GlcNAc6S
Summary of the method: as §1

GalNAc(a1-3)Gal = molecular target: GalNAc(a1-3)Gal
Summary of the method: as §1

GalNAc(a1-3)GalNAc = molecular target: GalNAc(a1-3)GalNAc
Summary of the method: as §1

[5] = molecular target: GalNAc(a1-3)GalNAc(b1-3)Gal(a1-4)Gal(b1-4)Glc
Summary of the method: as §1

[6] = molecular target: GalNAc(a1-3)GalNAc(b1-3)Gal(a1-4)Gal(b1-4)GlcNAc
Summary of the method: as §1

GalNAc(b1-3)Gal = molecular target: GalNAc(b1-3)Gal
Summary of the method: as §1

[7] = molecular target: GalNAc(b1-3)Gal(a1-4)Gal(b1-4)GlcNAc
Summary of the method: as §1

[8] = molecular target: GalNAc(b1-3)Gal(a1-4)Gal(b1-4)GlcNAc(b1-3)Gal(b1-4)Glc
Summary of the method: as §1

[9] = molecular target: GalNAc(b1-3)Gal(a1-6)Gal(b1-4)Glc
Summary of the method: as §1

GalNAc(b1-3)GalNAc = molecular target: GalNAc(b1-3)GalNAc
Summary of the method: as §1

GalNAc(b1-3)GlcNAc = molecular target: GalNAc(b1-3)GlcNAc
Summary of the method: as §1

GalNAc(b1-4)Gal(b1-4)Glc = molecular target: GalNAc(b1-4)Gal(b1-4)Glc
Summary of the method: as §1

GalNAc(b1-4)GlcNAc = molecular target: GalNAc(b1-4)GlcNAc
Summary of the method: as §1

[10] = molecular target: GalNAc(b1-4)GlcNAc(b1-2)Man
Summary of the method: as §1

[11] = molecular target: GalNAc(b1-4)GlcNAc(b1-2)Man(a1-3)[GalNAc(b1-4)GlcNAc(b1-2)Man(a1-6)]Man(b1-4)GlcNAc(b1-4)GlcNAc
Summary of the method: as §1

[12] = molecular target: GalNAc(b1-4)GlcNAc(b1-3)GalNAc(b1-4)GlcNAc
Summary of the method: as §1

GalNAc(b1-4)GlcNAc6S = molecular target: GalNAc(b1-4)GlcNAc6S
Summary of the method: as §1

GalNAc(b1-6)GalNAc = molecular target: GalNAc(b1-6)GalNAc
Summary of the method: as §1

GalNAc3S(b1-4)GlcNAc = molecular target: GalNAc3S(b1-4)GlcNAc
Summary of the method: as §1

GalNAc3S(b1-4)GlcNAc3S = molecular target: GalNAc3S(b1-4)GlcNAc3S
Summary of the method: as §1

[13] = molecular target: GalNAc3S(b1-4)[Fuc(a1-3)]GlcNAc
Summary of the method: as §1

GalNAc4S6S(b1-4)GlcNAc = molecular target: GalNAc4S6S(b1-4)GlcNAc
Summary of the method: as §1

GalNAc6S(b1-4)GlcNAc = molecular target: GalNAc6S(b1-4)GlcNAc
Summary of the method: as §1

Glc(a1-4)Glc = molecular target: Glc(a1-4)Glc
Summary of the method: as §1

[14] = molecular target: Glc(a1-4)Glc(a1-4)Glc(a1-4)Glc
Summary of the method: as §1

Glc(a1-6)Glc(a1-6)Glc = molecular target: Glc(a1-6)Glc(a1-6)Glc
Summary of the method: as §1

[15] = molecular target: Glc(a1-6)Glc(a1-6)Glc(a1-6)Glc
Summary of the method: as §1

B1: Banana lectin (Musa acuminata) (protein)
chain: MNGAIKVGAWGGNGGSAFDMGPAYRIISVKIFSGDVVDGVDVTFTYYGKTETRHYGGSGGTPHEIVLQEGEYLVGMAGEVANYTGAVVLGKLGFSTNKKAYGPFGNTGGTPFSLPIAAGKISGFFGRGGKFLDAIGVYLEPLEHHHHHH
glycan array binding signal (z-score) [1]: -0.185 | glycan array binding signal (z-score) (Gal3S(b1-4)Glc): -0.169 | glycan array binding signal (z-score) (Gal3S(b1-4)Glc6S): -0.165 | glycan array binding signal (z-score) (Gal3S(b1-4)GlcNAc): -0.179 | glycan array binding signal (z-score) [2]: -0.184 | glycan array binding signal (z-score) [3]: -0.171 | glycan array binding signal (z-score) [4]: -0.177 | glycan array binding signal (z-score) (Gal3S4S(b1-4)GlcNAc): -0.164 | glycan array binding signal (z-score) (Gal3S6S(b1-4)GlcNAc): -0.154 | glycan array binding signal (z-score) (Gal3S6S(b1-4)GlcNAc6S): -0.119 | glycan array binding signal (z-score) (Gal4S(b1-4)GlcNAc): -0.19 | glycan array binding signal (z-score) (Gal4S6S(b1-4)GlcNAc): -0.187 | glycan array binding signal (z-score) (Gal6P(b1-4)GlcNAc): -0.197 | glycan array binding signal (z-score) (Gal6S(b1-3)GlcNAc): -0.185 | glycan array binding signal (z-score) (Gal6S(b1-3)GlcNAc6S): -0.174 | glycan array binding signal (z-score) (Gal6S(b1-4)Glc): -0.166 | glycan array binding signal (z-score) (Gal6S(b1-4)Glc6S): -0.159 | glycan array binding signal (z-score) (Gal6S(b1-4)GlcNAc): -0.19 | glycan array binding signal (z-score) (Gal6S(b1-4)GlcNAc6S): -0.166 | glycan array binding signal (z-score) (GalNAc(a1-3)Gal): -0.188 | glycan array binding signal (z-score) (GalNAc(a1-3)GalNAc): -0.168 | glycan array binding signal (z-score) [5]: -0.184 | glycan array binding signal (z-score) [6]: -0.15 | glycan array binding signal (z-score) (GalNAc(b1-3)Gal): -0.208 | glycan array binding signal (z-score) [7]: -0.177 | glycan array binding signal (z-score) [8]: -0.197 | glycan array binding signal (z-score) [9]: -0.201 | glycan array binding signal (z-score) (GalNAc(b1-3)GalNAc): -0.144 | glycan array binding signal (z-score) (GalNAc(b1-3)GlcNAc): -0.163 | glycan array binding signal (z-score) (GalNAc(b1-4)Gal(b1-4)Glc): -0.142 | glycan array binding signal (z-score) (GalNAc(b1-4)GlcNAc): -0.182 | glycan array binding signal (z-score) [10]: -0.217 | glycan array binding signal (z-score) [11]: -0.175 | glycan array binding signal (z-score) [12]: -0.13 | glycan array binding signal (z-score) (GalNAc(b1-4)GlcNAc6S): -0.199 | glycan array binding signal (z-score) (GalNAc(b1-6)GalNAc): -0.203 | glycan array binding signal (z-score) (GalNAc3S(b1-4)GlcNAc): -0.152 | glycan array binding signal (z-score) (GalNAc3S(b1-4)GlcNAc3S): -0.193 | glycan array binding signal (z-score) [13]: -0.153 | glycan array binding signal (z-score) (GalNAc4S6S(b1-4)GlcNAc): -0.151 | glycan array binding signal (z-score) (GalNAc6S(b1-4)GlcNAc): -0.195 | glycan array binding signal (z-score) (Glc(a1-4)Glc): -0.184 | glycan array binding signal (z-score) [14]: -0.173 | glycan array binding signal (z-score) (Glc(a1-6)Glc(a1-6)Glc): -0.182 | glycan array binding signal (z-score) [15]: -0.205
